PMC4197402
These are yes or no findings as the source states them, for the method shown. For part of these data: In cells and extracts the contact can be indirect. Some binding calls cover weakened binding; strength is not graded here. For part of these data: Sequences can lack the tags named with a protein. Each block holds one molecule with its values, some of them ahead of it.

Columns and labels:
[1] = molecular target: VEGFR2, expressed in HEK293T cells (UniProt P35918); assay: co-IP; HEK293T cells transfected with Vegfr2 and WT Nrp1 or Nrp1 D320K; lysate in 1% Triton X-100, 150 mM NaCl; anti-VEGFR2 antibody and protein A/G beads; washes up to 300 mM NaCl
[2] = molecular target: T1, NRP1/PlexinA4 complex (wild-type NRP1 co-expressed with PlexinA4) (rat | not stated) (UniProt Q9QWJ9+Q80UG2); assay: AP-tagged ligand binding to transfected cells, liquid alkaline phosphatase activity assay, KD measurement; AP-SEMA3A on cells co-expressing NRP1 or NRP1 D320K with PlexinA4; ligand concentrations not told
[3] = molecular target: T2, NRP1^D320K/PlexinA4 complex (NRP1 D320K co-expressed with PlexinA4) (rat | not stated) (UniProt Q9QWJ9+Q80UG2); assay: as above
[4] = molecular target: Neuropilin-1 D320K (rat cDNA in pCS2+), on COS-1 cells (rat) (UniProt Q9QWJ9); assay: AP-tagged ligand binding to transfected cells, alkaline phosphatase histochemistry; COS-1 cells transfected with Nrp1 constructs; AP-tagged ligand from HEK293T medium, 2 nM, 75 min, HBHA pH 7; bound AP stained
[5] = molecular target: Neuropilin-1 E282K, on COS-1 cells (rat) (UniProt Q9QWJ9); assay: as above
[6] = molecular target: Neuropilin-1 E319K, D320K (electronegative surface mutant), on COS-1 cells (rat) (UniProt Q9QWJ9); assay: as above
[7] = molecular target: Neuropilin-1 E319K, on COS-1 cells (rat) (UniProt Q9QWJ9); assay: as above
[8] = molecular target: Neuropilin-1 S346A, E348A (tuftsin binding site mutant), on COS-1 cells (rat) (UniProt Q9QWJ9); assay: as above
[9] = molecular target: Neuropilin-1 S346A, E348A, T349A (tuftsin binding site mutant), on COS-1 cells (rat) (UniProt Q9QWJ9); assay: as above
[10] = molecular target: Neuropilin-1, wild type (rat cDNA in pCS2+), on COS-1 cells (rat) (UniProt Q9QWJ9); assay: as above
[11] = molecular target: Neuropilin-1 D320K, endogenous, Nrp1^VEGF− knock-in mice (mouse (endogenous in embryo sections and lung)) (UniProt P97333); assay: AP-tagged ligand binding to tissue sections; 25 um cryosections of E12.5 mouse embryos, methanol-fixed; 2 nM AP-tagged ligand in PBS + 4 mM MgCl2, HEPES pH 7, 1.5 hr, room temperature; NBT/BCIP; read at the dorsal root entry zone
[12] = molecular target: Neuropilin-1, endogenous, control mice (mouse (endogenous in embryo sections and lung)) (UniProt P97333); assay: as above
[13] = molecular target: T1, NRP1/PlexinA4 complex (wild-type NRP1 co-expressed with PlexinA4) (rat | not stated); assay: AP-tagged ligand binding to transfected cells, liquid alkaline phosphatase activity assay; COS-1 cells transfected with Nrp1 constructs (with PlexinA4 for AP-SEMA3A); 2 nM AP-tagged ligand, 75 min, HBHA pH 7; cells lysed, AP activity read at 405 nm; normalised to protein content and anti-NRP1 staining
[14] = molecular target: T2, NRP1^D320K/PlexinA4 complex (NRP1 D320K co-expressed with PlexinA4) (rat | not stated); assay: as above

binding [1]: binds
Molecule: Neuropilin-1 D320K, expressed in HEK293T cells (from UniProt Q9QWJ9 22-922) (receptor)

binding [1]: binds
Molecule: Neuropilin-1, wild type, expressed in HEK293T cells (from UniProt Q9QWJ9 22-922) (receptor)

binding [2]: binds
binding [3]: binds
binding [4]: binds
binding [5]: binds
binding [6]: binds
binding [7]: binds
binding [8]: no binding (tested: 2 nM ligand)
binding [9]: no binding (tested: 2 nM ligand)
binding [10]: binds
binding [11]: binds
binding [12]: binds
binding [13]: binds
binding [14]: binds
B1: alkaline phosphatase-tagged SEMA3A (AP-SEMA3A) (ligand, UniProt Q14563 21-771)
chain: NYQNGKNNVPRLKLSYKEMLESNNVITFNGLANSSSYHTFLLDEERSRLYVGAKDHIFSFDLVNIKDFQKIVWPVSYTRRDECKWAGKDILKECANFIKVLKAYNQTHLYACGTGAFHPICTYIEIGHHPEDNIFKLENSHFENGRGKSPYDPKLLTASLLIDGELYSGTAADFMGRDFAIFRTLGHHHPIRTEQHDSRWLNDPKFISAHLISESDNPEDDKVYFFFRENAIDGEHSGKATHARIGQICKNDFGGHRSLVNKWTTFLKARLICSVPGPNGIDTHFDELQDVFLMNFKDPKNPVVYGVFTTSSNIFKGSAVCMYSMSDVRRVFLGPYAHRDGPNYQWVPYQGRVPYPRPGTCPSKTFGGFDSTKDLPDDVITFARSHPAMYNPVFPMNNRPIVIKTDVNYQFTQIVVDRVDAEDGQYDVMFIGTDVGTVLKVVSIPKETWYDLEEVLLEEMTVFREPTAISAMELSTKQQQLYIGSTAGVAQLPLHRCDIYGKACAECCLARDPYCAWDGSACSRYFPTAKRRTRRQDIRNGDPLTHCSDLHHDNHHGHSPEERIIYGVENSSTFLECSPKSQRALVYWQFQRRNEERKEEIRVDDHIIRTDQGLLLRSLQQKDSGNYLCHAVEHGFIQTLLKVTLEVIDTEHLEELLHKDDDGDGSKTKEMSNSMTPSQKVWYRDFMQLINHPNLNTMDEFCEQVWKRDRKQRRQRPGHTPGNSNKWKHLQENKKGRNRRTHEFERAPRSV
